In all, about 310,000 compounds went through this assay and about 2,200 (0.71%) showed an effect of 50% or more. The effect is printed as a negative number. The list shows a part of the results.
Each compound was assayed against human ether-à-go-go-related gene (hERG) potassium channel (human, UniProt Q12809) (assay: primary screen, population patch clamp on CHO cells stably expressing hERG).
Sequence of human ether-à-go-go-related gene (hERG) potassium channel (Q12809 whole entry, looked up): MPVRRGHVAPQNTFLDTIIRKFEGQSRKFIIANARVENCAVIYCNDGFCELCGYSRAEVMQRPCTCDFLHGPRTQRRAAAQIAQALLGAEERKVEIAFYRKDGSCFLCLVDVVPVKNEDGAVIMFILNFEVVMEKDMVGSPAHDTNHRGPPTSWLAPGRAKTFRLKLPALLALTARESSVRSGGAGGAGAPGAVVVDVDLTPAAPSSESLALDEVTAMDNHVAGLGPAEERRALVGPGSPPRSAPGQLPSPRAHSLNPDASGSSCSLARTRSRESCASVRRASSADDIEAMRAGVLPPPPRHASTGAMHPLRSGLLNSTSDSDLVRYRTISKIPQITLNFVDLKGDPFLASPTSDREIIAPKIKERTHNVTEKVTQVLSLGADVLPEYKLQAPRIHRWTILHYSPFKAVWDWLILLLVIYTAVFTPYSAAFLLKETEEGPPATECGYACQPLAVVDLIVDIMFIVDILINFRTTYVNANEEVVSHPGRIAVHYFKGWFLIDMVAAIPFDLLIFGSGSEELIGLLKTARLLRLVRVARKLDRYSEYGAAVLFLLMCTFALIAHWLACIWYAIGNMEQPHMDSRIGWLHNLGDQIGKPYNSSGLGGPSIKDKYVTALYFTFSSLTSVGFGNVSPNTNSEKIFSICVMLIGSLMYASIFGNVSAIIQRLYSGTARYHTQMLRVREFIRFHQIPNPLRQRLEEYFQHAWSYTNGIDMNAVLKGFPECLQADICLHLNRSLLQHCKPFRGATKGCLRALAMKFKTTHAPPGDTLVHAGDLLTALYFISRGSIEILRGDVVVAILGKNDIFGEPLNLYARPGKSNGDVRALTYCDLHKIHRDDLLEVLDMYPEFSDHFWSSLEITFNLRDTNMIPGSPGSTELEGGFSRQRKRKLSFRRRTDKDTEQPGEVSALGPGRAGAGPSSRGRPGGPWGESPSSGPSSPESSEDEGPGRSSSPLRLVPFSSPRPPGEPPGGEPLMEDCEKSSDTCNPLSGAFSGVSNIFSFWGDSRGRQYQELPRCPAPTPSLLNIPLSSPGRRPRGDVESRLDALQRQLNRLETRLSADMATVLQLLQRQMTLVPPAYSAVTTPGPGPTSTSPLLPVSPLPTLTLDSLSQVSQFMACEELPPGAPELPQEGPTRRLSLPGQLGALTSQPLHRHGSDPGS

SMILES	hERG current change (%, negative = inhibition) at 1uM [%]
Cc1cc(NC(=O)CC2CCCC2)ccc1Br	15.1
COc1ccc(-c2cc(C(=O)NCCCN3CCOCC3)c3cc(C(C)C)ccc3n2)cc1	14.7
Cc1ccc([N+](=O)[O-])c(OCCCNCC(C)O)c1.O=C(O)C(=O)O (stereo not shown)	4.78
COc1cccc(/C=N/NC(=O)NC2CCCCC2)c1O	1.35
COC(=O)c1nn(-c2ccccc2)c(Cl)c1/C=N/O	5.24
CC(=O)/C=C1\N(C)c2ccc(C)cc2C1(C)C	13.7
O=C(NCc1cccnc1)C1CC(c2cccc(Br)c2)=NO1 (stereo not shown)	11.7
Cc1cccc(N2CCN(c3ccc4cc(S(=O)(=O)N5CCCCC5)ccc4n3)CC2)c1C	24.4
CCOc1ccc(CC(=O)Nc2ccc(S(=O)(=O)Nc3cc(C)on3)cc2)cc1OCC	10
COc1cccc(-c2nn(-c3ccccc3)cc2CN(C)C(C)c2ccon2)c1 (stereo not shown)	12.1
COC(=O)c1ccc(OC(=O)CCS(=O)(=O)c2ccc(C)cc2)cc1	2.05
NNC(=O)c1ccc(S(=O)(=O)N2CCc3ccccc32)cc1	9.63
Cl.O=C(NCCCn1ccnc1)c1ccc(F)cc1	8.24
CCOc1ccc(NC(=O)CCNc2c(N3CCCC3)c(=O)c2=O)cc1	11.5
CC(C)c1[nH]nc2c1C(c1cccs1)C(C#N)=C(N)O2 (stereo not shown)	19.1
COc1ccc(/C(N)=N/OC(=O)N2CCOCC2)cc1	-16.2
O=C(NNC(=O)c1cc(Cl)ccc1[N+](=O)[O-])c1csc(N2CCOCC2)n1	15.3
O=C(Nc1cccc(C(F)(F)F)c1)c1ccc(Cn2cc(Br)cn2)o1	-1.53
Cn1c(N)c(C(=O)Nc2ccccc2)c(=O)[nH]c1=O	19
Cc1cc(SCC(=O)NCCN2C(=O)CSC2=O)nc2ccccc12	10.2
CCC(C)NC(=O)Cn1c(COc2ccc(Cl)cc2Cl)nc2ccccc21 (stereo not shown)	10.7
CCc1ccccc1-n1nnc(-c2ccccc2)n1	7.29
CCCCNC(=O)c1ccc(NS(=O)(=O)c2ccccc2)cc1	19.4
CCC(CO)NCc1cc(OC)c(OCC(=O)NCCc2ccccc2)cc1Br (stereo not shown)	5.45
CCC1CCCCN1C(=O)CSc1nc(N)c(NC(=O)c2ccc(OC)c(OC)c2)c(=O)[nH]1 (stereo not shown)	14.8

Source: PMC4336329 (PLoS ONE, 2015)
